# Laboratory results taken from article PMC4336329 (PLoS ONE, 2015).
# Screen size: about 310,000 compounds; about 2,200 (0.71%) showed an effect of 50% or more. The effect is printed as a negative number. This is one part of the list.
# Target: human ether-à-go-go-related gene (hERG) potassium channel (human, UniProt Q12809)
# Assay: primary screen, population patch clamp on CHO cells stably expressing hERG
# human ether-à-go-go-related gene (hERG) potassium channel, sequence (Q12809 whole entry, looked up): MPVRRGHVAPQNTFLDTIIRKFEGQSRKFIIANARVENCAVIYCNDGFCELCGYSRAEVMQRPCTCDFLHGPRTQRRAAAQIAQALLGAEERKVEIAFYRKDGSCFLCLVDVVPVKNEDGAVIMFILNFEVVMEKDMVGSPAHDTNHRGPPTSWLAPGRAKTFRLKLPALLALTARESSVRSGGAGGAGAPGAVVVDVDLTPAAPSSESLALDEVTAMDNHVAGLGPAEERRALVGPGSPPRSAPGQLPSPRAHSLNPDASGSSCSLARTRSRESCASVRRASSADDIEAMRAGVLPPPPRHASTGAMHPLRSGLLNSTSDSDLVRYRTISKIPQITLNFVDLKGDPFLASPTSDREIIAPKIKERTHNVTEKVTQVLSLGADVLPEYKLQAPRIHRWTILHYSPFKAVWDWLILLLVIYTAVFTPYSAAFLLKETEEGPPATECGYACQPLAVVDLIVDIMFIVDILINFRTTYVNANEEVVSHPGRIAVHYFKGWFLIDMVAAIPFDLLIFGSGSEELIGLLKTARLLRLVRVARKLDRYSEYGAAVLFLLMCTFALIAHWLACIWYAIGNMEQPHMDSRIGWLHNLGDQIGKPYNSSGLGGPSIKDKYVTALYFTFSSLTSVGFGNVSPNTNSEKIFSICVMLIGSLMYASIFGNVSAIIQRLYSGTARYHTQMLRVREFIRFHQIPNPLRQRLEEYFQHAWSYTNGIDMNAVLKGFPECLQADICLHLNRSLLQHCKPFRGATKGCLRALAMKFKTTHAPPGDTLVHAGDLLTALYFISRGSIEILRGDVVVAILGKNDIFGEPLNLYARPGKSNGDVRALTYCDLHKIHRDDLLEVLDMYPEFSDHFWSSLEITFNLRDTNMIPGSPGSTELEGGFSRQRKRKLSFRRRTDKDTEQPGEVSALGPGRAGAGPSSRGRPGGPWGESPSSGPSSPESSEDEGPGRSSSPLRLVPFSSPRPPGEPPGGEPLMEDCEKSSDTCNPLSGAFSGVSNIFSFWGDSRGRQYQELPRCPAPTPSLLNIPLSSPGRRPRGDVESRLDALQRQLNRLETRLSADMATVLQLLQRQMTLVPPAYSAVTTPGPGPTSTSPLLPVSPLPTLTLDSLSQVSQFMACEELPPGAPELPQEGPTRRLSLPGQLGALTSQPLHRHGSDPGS
row,Structure (SMILES),"hERG current change (%, negative = inhibition) at 1uM [%]"
1,Cc1cccc(NC(=O)C2c3ccccc3Oc3ccccc32)n1,0.086
2,Cc1oc(-c2ccccc2F)nc1CS(=O)CC(=O)NCc1ccccn1 (stereo not shown),7.41
3,CCOc1ccc(CCNC(=O)CSc2cc(=O)n(C)c3ccc(Cl)cc23)cc1OCC,-7.23
4,CCCCC1(CCCC)C(=O)NC(=Nc2cccc(C)c2)NC1=O,12.2
5,O=C(c1ccc(Cl)c(S(=O)(=O)Nc2ccc(F)cc2)c1)N1CCN(c2ccccn2)CC1,7.38
6,CC(C)(C)NC(=O)Cn1cc(C#N)c2cc(Br)ccc21,6.59
7,COc1ccc(OCCCC(=O)Nc2cccc(S(=O)(=O)N3CCCCCC3)c2)cc1,0.212
8,O=C(Nc1ccc(CN2CCCCC2)cc1)c1c(F)c(F)c(F)c(F)c1F,-3.12
9,Cc1ccc(-c2cc(C(=O)NCCc3ccc(S(N)(=O)=O)cc3)c3ccccc3n2)cc1,3.59
10,Cc1cc(C)cc(NC(=S)NCC2CCN(C(C)c3ccccc3)C2)c1 (stereo not shown),-44.9
11,CCOC(=O)c1ccc(N=c2sc(C(=O)OC)cc(=O)n2C2CC2)cc1,7
12,CCc1ccc(C2C3=C(CCCC3=O)OC3=C2C(=O)CCC3)cc1,12
13,CCOC(=O)c1c(NC(=O)c2nn(CC)cc2Br)c(C#N)nn1-c1ccccc1,0.735
14,Cc1c(C2CC(=O)N(c3ccccc3)C2=O)[nH]n(-c2ccccc2)c1=O (stereo not shown),12.6
15,COc1ccc(C(=O)c2coc3ccc(O)c(CN4CCOCC4)c23)cc1,1.63
16,CC1/C(=N/O)C(CN(C)C)C2CC1C2(C)C.Cl (stereo not shown),13.8
17,COc1ccc(-n2c(CNC(=O)COc3ccc(Cl)cc3)n[nH]c2=S)cc1,16.9
18,O=S1(=O)CCO[C@H]2Cc3ccccc3[C@H]2N1Cc1cccc(C(F)(F)F)c1,8.71
19,COc1ccc(C(=O)NCCN2CCOCC2)cc1[N+](=O)[O-],11.6
20,Cn1c(CCNC(=O)c2ccccc2F)nnc1SCC(=O)Nc1ccccc1F,6.51
21,Cl.O=C(CN1CCNCC1)NCCSc1ccc(Cl)cc1,-6.87
22,CCCOc1ccccc1C(=O)N1CCNC(=O)C1CC(=O)OC(C)C (stereo not shown),9.86
23,O=C1NC[C@H](Cc2ccccc2)N(CC2CCCCC2)C1=O,8.43
24,CC(C)COC(=S)Nc1ccccc1,7.76
25,O=C(OC(C(=O)NC1CCCCC1)c1ccccc1F)c1ccco1 (stereo not shown),9.19
26,CN(C)C(CNC(=O)CCNS(=O)(=O)c1ccccc1C(F)(F)F)c1ccccc1 (stereo not shown),8.79
27,Cc1ccc(C(=O)NCC(=O)N/N=C/c2sccc2C)cc1[N+](=O)[O-],8.66
28,Cc1ccc(C)c(C(C)NC(=O)C2CCCC2)c1 (stereo not shown),15

row,Structure (SMILES),"hERG current change (%, negative = inhibition) at 1uM [%]"
1,Cc1cc([N+](=O)[O-])nn1CCCC(=O)Nc1ccc(Cl)cc1Cl,-4.42
2,Cc1ccc(-c2nnn(CC(=O)N(CC(=O)NCC3CCCO3)c3ccc(F)c(Cl)c3)n2)o1 (stereo not shown),9.85
3,COC(=O)CCC(=O)OC1(C)C(=O)C=C2C=C(C3CC3)OC=C2C1=O (stereo not shown),6.53
4,CC(OC(=O)c1ccncc1)C(=O)Nc1cc(S(=O)(=O)N2CCCCC2)ccc1Cl (stereo not shown),-4.36
5,CCc1cc2c(=O)n(Cc3ccco3)c(SCC(=O)N3CCCc4ccccc43)nc2s1,6.32
6,C=CCN(C(=O)CCC(=O)O)C1CC(=O)N(c2ccc(OCCC)cc2)C1=O (stereo not shown),13.2
7,CC(=O)NNc1ncnc2ccccc12,11.9
8,Br.COc1cccc(C(=O)CSc2nccn2C)c1,15.8
9,O=C(CCC1COc2ccccc2O1)NCC1COc2ccccc2O1 (stereo not shown),6.41
10,Cc1ccc(C(=O)NCCc2nnc3ccc(N4CCCC4)nn23)cc1,15.4
11,FC(F)(F)c1cccc(NC(=S)NNC(=S)Nc2ccc(Cl)cc2)c1,8.82
12,COc1ccc(-c2cc(=O)oc3cc(OCC(=O)N4C[C@H]5C[C@@H](C4)c4cccc(=O)n4C5)ccc23)cc1,1.14
13,COc1ccc(NC(=O)CSc2nnc(-c3ccccn3)n2Cc2ccco2)cc1OC,-11.1
14,CCOC(=O)/C=C1\SCC(=O)N1CC(=O)Nc1ccc(C(C)C)cc1,-7.75
15,CCCOc1ccc(CN(C(=O)c2cccc(OC)c2)C2CCS(=O)(=O)C2)cc1 (stereo not shown),7.65
16,COc1ccccc1NC(=O)c1ccccc1NS(=O)(=O)N1CCCC1,8.21
17,Cc1ccc(NC(=S)N(CCN(C)C)Cc2cc3cccc(C)c3[nH]c2=O)cc1,-29.4
18,Cc1occc1C(=O)Nc1ccc2c(c1)CCC2,3.26
19,CCN1C[C@]2(CO)CC[C@H](OC)[C@@]34C2[C@H](OC)[C@@](O)(C13)[C@@]1(O)C[C@H](OC)[C@H]2C[C@@H]4[C@@H]1[C@H]2OC,9.25
20,CCCCn1c(CCNC(=O)CC)nc2ccccc21,0.197
21,C=CCn1c(P(C)(=O)O)nc2ccccc21,14.4
22,O=C(OCc1ccccc1)c1cccc(-c2nnn(Cc3ccccc3)n2)c1,9.9
23,Cc1cccc(C)c1NC(=O)CS(=O)CC(=O)NCC1OCCc2ccccc21 (stereo not shown),16.2
24,CCC(=O)c1ccc(OCC(=O)OCC(=O)N2CCc3ccccc3C2)cc1,5.84
25,Cc1cc(N2CCC(C(=O)NC3CCCCC3)CC2)nc(-c2ccccc2)n1,-5.09
26,CCOc1cc2c(cc1/C=C1/NC(=O)N(CC(=O)OC)C1=O)OCO2,12.5
27,COc1ccc(-c2oc(NC(=O)c3ccc(C)cc3)c(C#N)c2-c2ccc(OC)cc2)cc1,-4.07
